Experimental data: PMC12820563, “FoxP3 forms a head-to-head dimer in vivo and stabilizes its multimerization on adjacent microsatellites”
This is one part of the list.

target: T1, MBP-FoxP1dN (Mus musculus, UniProt P58462 326-579); experiment: PD-seq (MBP pull-down with sequencing); 20 mM Tris-HCl pH 7.5, 100 mM NaCl, 1.5 mM MgCl2, 0.4 uM protein, 0.1 uM dsDNA library, 30 min, room temperature, amylose pull-down; high values mean tight binding; conditions: protein: recombinant; tags: His6-MBP; chain copies: 2; dsDNA, one strand shown
T1 sequence: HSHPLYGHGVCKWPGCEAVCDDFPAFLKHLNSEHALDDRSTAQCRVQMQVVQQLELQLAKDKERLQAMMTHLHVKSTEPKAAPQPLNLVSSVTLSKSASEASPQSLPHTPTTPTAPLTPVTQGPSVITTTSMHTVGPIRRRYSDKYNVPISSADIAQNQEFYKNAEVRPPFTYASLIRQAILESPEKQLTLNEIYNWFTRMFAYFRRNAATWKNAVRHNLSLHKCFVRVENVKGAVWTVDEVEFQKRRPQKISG
Method in brief: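 A degenerate double-stranded DNA library, filled in with Klenow, was added at 0.1 µM to 0.4 µM His6-MBP-tagged mouse FoxP3 or FoxP1 fragment lacking the N-terminus, expressed in E. coli. Incubation lasted 30 min at room temperature in Tris pH 7.5 buffer with NaCl and MgCl2, after which complexes were collected on amylose resin, washed three times, digested with proteinase K to free the DNA, barcoded by PCR and sequenced by Illumina. Binding is the pooled-replicate reads-per-million enrichment of pull-down over input.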

Row | Sequence | binding signal
1 | GATGATTGTTCTCCCAGCTGATGAATTATTCCTTTCGAGTAAACAAATTTTCCTAATCTTTCTGTTCAAGCGCCATCTAC | 1.01 RPM ratio (pull-down/input)
2 | GATGATTGTTCTCCCAGCTGATGAATTGGCCATTTCGAGTAAACAAATTTTCCTAATCTTTCTGTTCAAGCGCCATCTAC | 0.857 RPM ratio (pull-down/input)
3 | GATGATTGTTCTCCCAGCTGATGAATTATTAAGGTCGAGTAAACAAATTTTCCTAATCTTTCTGTTCAAGCGCCATCTAC | 1.05 RPM ratio (pull-down/input)
4 | GATGATTGTTCTCCCAGCTGATGAATTACCCATGTCGAGTAAACAAATTTTCCTAATCTTTCTGTTCAAGCGCCATCTAC | 0.942 RPM ratio (pull-down/input)
5 | GATGATTGTTCTCCCAGCTGATGAATTGTTAGCGTCGAGTAAACAAATTTTCCTAATCTTTCTGTTCAAGCGCCATCTAC | 1.26 RPM ratio (pull-down/input)
6 | GATGATTGTTCTCCCAGCTGATGAATTCTGGACCTCGAGTAAACAAATTTTCCTAATCTTTCTGTTCAAGCGCCATCTAC | 0.712 RPM ratio (pull-down/input)
7 | GATGATTGTTCTCCCAGCTGATGAATTAAACTTCTCGAGTAAACAAATTTTCCTAATCTTTCTGTTCAAGCGCCATCTAC | 0.857 RPM ratio (pull-down/input)
8 | GATGATTGTTCTCCCAGCTGATGAATTAAGCCGTTCGAGTAAACAAATTTTCCTAATCTTTCTGTTCAAGCGCCATCTAC | 0.953 RPM ratio (pull-down/input)
9 | GATGATTGTTCTCCCAGCTGATGAATTCGATAAATCGAGTAAACAAATTTTCCTAATCTTTCTGTTCAAGCGCCATCTAC | 1.13 RPM ratio (pull-down/input)
10 | GATGATTGTTCTCCCAGCTGATGAATTATAATCGTCGAGTAAACAAATTTTCCTAATCTTTCTGTTCAAGCGCCATCTAC | 1.06 RPM ratio (pull-down/input)
11 | GATGATTGTTCTCCCAGCTGATGAATTCTGGCCCTCGAGTAAACAAATTTTCCTAATCTTTCTGTTCAAGCGCCATCTAC | 0.782 RPM ratio (pull-down/input)
12 | GATGATTGTTCTCCCAGCTGATGAATTGACAGCCTCGAGTAAACAAATTTTCCTAATCTTTCTGTTCAAGCGCCATCTAC | 1.03 RPM ratio (pull-down/input)
13 | GATGATTGTTCTCCCAGCTGATGAATTAAGTGATTCGAGTAAACAAATTTTCCTAATCTTTCTGTTCAAGCGCCATCTAC | 0.916 RPM ratio (pull-down/input)
14 | GATGATTGTTCTCCCAGCTGATGAATTCTCGGCTTCGAGTAAACAAATTTTCCTAATCTTTCTGTTCAAGCGCCATCTAC | 0.78 RPM ratio (pull-down/input)
15 | GATGATTGTTCTCCCAGCTGATGAATTAGAGCTGTCGAGTAAACAAATTTTCCTAATCTTTCTGTTCAAGCGCCATCTAC | 0.882 RPM ratio (pull-down/input)
16 | GATGATTGTTCTCCCAGCTGATGAATTCGCATCCTCGAGTAAACAAATTTTCCTAATCTTTCTGTTCAAGCGCCATCTAC | 1.24 RPM ratio (pull-down/input)

Row | Sequence | binding signal
17 | GATGATTGTTCTCCCAGCTGATGAATTATATCGCTCGAGTAAACAAATTTTCCTAATCTTTCTGTTCAAGCGCCATCTAC | 0.946 RPM ratio (pull-down/input)
18 | GATGATTGTTCTCCCAGCTGATGAATTGGCTAGGTCGAGTAAACAAATTTTCCTAATCTTTCTGTTCAAGCGCCATCTAC | 0.79 RPM ratio (pull-down/input)
19 | GATGATTGTTCTCCCAGCTGATGAATTCAGCGCCTCGAGTAAACAAATTTTCCTAATCTTTCTGTTCAAGCGCCATCTAC | 0.988 RPM ratio (pull-down/input)
20 | GATGATTGTTCTCCCAGCTGATGAATTCTGAGAATCGAGTAAACAAATTTTCCTAATCTTTCTGTTCAAGCGCCATCTAC | 0.923 RPM ratio (pull-down/input)
21 | GATGATTGTTCTCCCAGCTGATGAATTTCGGCGCTCGAGTAAACAAATTTTCCTAATCTTTCTGTTCAAGCGCCATCTAC | 0.772 RPM ratio (pull-down/input)
22 | GATGATTGTTCTCCCAGCTGATGAATTCAGTTTGTCGAGTAAACAAATTTTCCTAATCTTTCTGTTCAAGCGCCATCTAC | 1.29 RPM ratio (pull-down/input)
23 | GATGATTGTTCTCCCAGCTGATGAATTGACGACATCGAGTAAACAAATTTTCCTAATCTTTCTGTTCAAGCGCCATCTAC | 1.16 RPM ratio (pull-down/input)
24 | GATGATTGTTCTCCCAGCTGATGAATTACTAGGTTCGAGTAAACAAATTTTCCTAATCTTTCTGTTCAAGCGCCATCTAC | 0.969 RPM ratio (pull-down/input)
25 | GATGATTGTTCTCCCAGCTGATGAATTATAATATTCGAGTAAACAAATTTTCCTAATCTTTCTGTTCAAGCGCCATCTAC | 1.11 RPM ratio (pull-down/input)
26 | GATGATTGTTCTCCCAGCTGATGAATTGAGCAAGTCGAGTAAACAAATTTTCCTAATCTTTCTGTTCAAGCGCCATCTAC | 0.74 RPM ratio (pull-down/input)
27 | GATGATTGTTCTCCCAGCTGATGAATTTGTGACGTCGAGTAAACAAATTTTCCTAATCTTTCTGTTCAAGCGCCATCTAC | 1.15 RPM ratio (pull-down/input)
28 | GATGATTGTTCTCCCAGCTGATGAATTGCAGGAGTCGAGTAAACAAATTTTCCTAATCTTTCTGTTCAAGCGCCATCTAC | 1 RPM ratio (pull-down/input)
29 | GATGATTGTTCTCCCAGCTGATGAATTCACAACGTCGAGTAAACAAATTTTCCTAATCTTTCTGTTCAAGCGCCATCTAC | 1.03 RPM ratio (pull-down/input)
30 | GATGATTGTTCTCCCAGCTGATGAATTGGTGCGATCGAGTAAACAAATTTTCCTAATCTTTCTGTTCAAGCGCCATCTAC | 0.971 RPM ratio (pull-down/input)
31 | GATGATTGTTCTCCCAGCTGATGAATTCGGCAACTCGAGTAAACAAATTTTCCTAATCTTTCTGTTCAAGCGCCATCTAC | 0.89 RPM ratio (pull-down/input)
32 | GATGATTGTTCTCCCAGCTGATGAATTTATCCCTTCGAGTAAACAAATTTTCCTAATCTTTCTGTTCAAGCGCCATCTAC | 1.05 RPM ratio (pull-down/input)
